In a compilation of properties of binary mixtures (doi:10.1016/j.molliq.2012.02.019):
Some of these densities may be calculated back from excess volumes.

Experiment: xn = mol fraction of the nth substance listed
Conditions: 101 kPa

CCCCCCCC[N+](C)(CCCCCCCC)CCCCCCCC.[Cl-] + COC(=O)OC
mass density [kg/m3]
Conditions | x2 = 0 | x2 = 0.35 | x2 = 0.55 | x2 = 0.67 | x2 = 0.76 | x2 = 0.83 | x2 = 0.88 | x2 = 0.92 | x2 = 0.95 | x2 = 0.98
298.15 K | – | 897 | 907 | – | 944.4 | 956.8 | – | 997.5 | 1019.9 | 1040
303.15 K | 884 | 894 | – | 916 | 939.7 | 953.3 | 970.3 | 994.6 | 1014.6 | 1033.4
308.15 K | 880 | 891 | 900 | 913 | – | 950.3 | 967.4 | 991.6 | – | –
313.15 K | 877 | 888 | – | 910 | 933.8 | 946.8 | 963.2 | – | 1002.2 | –
318.15 K | 874 | 885 | 896 | 906 | 930 | 943 | 960 | 986 | 996 | 1016

COC(=O)OC + CCCCCCCC[N+](C)(CCCCCCCC)CCCCCCCC.[Cl-]
x1 = 1
Conditions | mass density [kg/m3]
303.15 K | 1056.7
308.15 K | 1043.4
